B1: recombinant human wild type IDH1 with C-terminal His8 tag (enzyme)
chain: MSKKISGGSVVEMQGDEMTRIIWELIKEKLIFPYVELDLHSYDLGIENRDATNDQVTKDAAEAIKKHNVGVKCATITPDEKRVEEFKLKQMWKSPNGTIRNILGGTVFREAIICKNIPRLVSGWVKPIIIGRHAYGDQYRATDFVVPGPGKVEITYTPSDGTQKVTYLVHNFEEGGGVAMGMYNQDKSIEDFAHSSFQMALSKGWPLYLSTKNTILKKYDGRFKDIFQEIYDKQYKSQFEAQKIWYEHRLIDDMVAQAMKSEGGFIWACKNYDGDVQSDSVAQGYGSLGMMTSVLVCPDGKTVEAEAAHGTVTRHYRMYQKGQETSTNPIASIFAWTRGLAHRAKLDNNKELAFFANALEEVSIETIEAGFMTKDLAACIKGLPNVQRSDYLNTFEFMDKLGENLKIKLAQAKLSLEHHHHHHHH
notes: The whole IDH1 coding region in pET41a with C-terminal SLE-His8, expressed in E. coli; also called IDHwt; IDH1 wt
B2: recombinant human IDH1 R132H mutant with C-terminal His8 tag (enzyme)
chain: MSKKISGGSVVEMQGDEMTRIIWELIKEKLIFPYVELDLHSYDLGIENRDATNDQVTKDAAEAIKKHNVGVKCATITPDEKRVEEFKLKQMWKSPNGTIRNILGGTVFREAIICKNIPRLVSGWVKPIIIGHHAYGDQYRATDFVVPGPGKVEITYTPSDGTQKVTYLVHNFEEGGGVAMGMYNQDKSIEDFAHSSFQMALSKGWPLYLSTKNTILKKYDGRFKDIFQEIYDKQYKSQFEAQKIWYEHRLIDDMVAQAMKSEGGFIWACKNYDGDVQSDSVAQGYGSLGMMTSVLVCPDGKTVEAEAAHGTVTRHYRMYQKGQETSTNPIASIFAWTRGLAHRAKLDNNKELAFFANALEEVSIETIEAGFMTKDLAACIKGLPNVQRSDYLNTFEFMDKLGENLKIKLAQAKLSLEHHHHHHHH
notes: The whole IDH1 coding region in pET41a with C-terminal SLE-His8, expressed in E. coli; Crystallised as a homodimer with aKG, NADPH and Ca2+; also called IDHR132H; ICDH1 R132H
B3: human cytosolic isocitrate dehydrogenase (HcIDH) engineered mutant form R132S with an 11-residue C-terminal affinity-purification tag (enzyme)
chain: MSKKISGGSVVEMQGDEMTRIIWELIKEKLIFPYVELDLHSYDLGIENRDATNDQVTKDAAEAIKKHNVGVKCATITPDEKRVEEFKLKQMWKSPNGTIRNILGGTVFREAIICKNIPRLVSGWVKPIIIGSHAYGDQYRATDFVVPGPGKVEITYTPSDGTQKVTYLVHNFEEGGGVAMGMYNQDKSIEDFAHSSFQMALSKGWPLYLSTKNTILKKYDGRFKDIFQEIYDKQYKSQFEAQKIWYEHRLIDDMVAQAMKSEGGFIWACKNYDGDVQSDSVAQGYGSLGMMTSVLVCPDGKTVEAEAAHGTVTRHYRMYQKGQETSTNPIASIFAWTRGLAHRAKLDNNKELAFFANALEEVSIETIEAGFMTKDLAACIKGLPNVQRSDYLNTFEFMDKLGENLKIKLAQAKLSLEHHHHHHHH
notes: The whole IDH1 coding region was cloned into pET41a; The stop codon was changed to Ser, which gives the C-terminal SLE-His8; Expressed in E. coli; also called IDH1 R132S; IDHR132S

Molecular target: the molecule itself
Assay: size-exclusion chromatography (S-200), self-association into a homodimer

Binding result, binds:
B1, B2, B3

— patent publication US20130288284A1 (AGIOS PHARMACEUTICALS, published 2013)
